# PubChem BioAssay AID1745853 (National Center for Advancing Translational Sciences (NCATS), 2022)
# The other results are listed elsewhere or left out. The main result of the screen is listed elsewhere. These columns were measured beside it and carry no call.
# Legend:
# Assay in all cases: Primary Screen for Target Class Profiling of Small Molecule Inhibitors of Methyltransferases
# [1] = biological target: Glycine N-methyltransferase (Homo sapiens) (UniProt Q14749); settings: purified enzyme, MTase-Glo SAH luminescence; measured here: GNMT inhibition; at 40 µM; stronger effect = lower value
# Outline: (§1)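 Each enzyme was assayed with SAM and its substrate. SAH formation detected by MTase-Glo luminescence; single-point 40 uM screen[…].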
# [2] = biological target: Guanidinoacetate N-methyltransferase (Homo sapiens) (UniProt Q14353); settings: purified enzyme, MTase-Glo SAH luminescence; measured here: GAMT inhibition; at 40 µM; stronger effect = lower value
# Outline: as §1
# [3] = biological target: Histamine N-methyltransferase (Homo sapiens) (UniProt P50135); settings: purified enzyme, MTase-Glo SAH luminescence; measured here: HNMT inhibition; at 40 µM; stronger effect = lower value
# Outline: as §1
# [4] = biological target: Nicotinamide N-methyltransferase (Homo sapiens) (UniProt P40261); settings: purified enzyme, MTase-Glo SAH luminescence; measured here: NNMT inhibition; at 40 µM; stronger effect = lower value
# Outline: as §1
# [5] = biological target: Phenylethanolamine N-methyltransferase (Homo sapiens) (UniProt P11086); settings: purified enzyme, MTase-Glo SAH luminescence; measured here: PNMT inhibition; at 40 µM; stronger effect = lower value
# Outline: as §1
# % is set by controls: 0 for no effect and ±100 for the full control effect.
Structure (SMILES),"activity change, negative = inhibition [1] [%]","activity change, negative = inhibition [2] [%]","activity change, negative = inhibition [3] [%]","activity change, negative = inhibition [4] [%]","activity change, negative = inhibition [5] [%]"
O=C1NCC2(CCN(C(=O)c3ccccc3C3CCNC3)CC2)O1 (configuration not stated),-3.24,-5.6,-3.74,-14.6,-6.71
CC(=O)C1=C(O)C2c3c[nH]c4cccc(c34)CC2C(C)(C)N(C)C1=O (configuration not stated),2.43,–,4.43,–,–
COc1ccc(NC(=O)CCc2nnc3n(Cc4ccc(F)cc4)c(=O)c4ccccc4n23)cc1,-9.74,0.194,-11.6,-8.24,-13
O=S(=O)(c1cccc2c(Cl)cccc12)N1CCCNCC1,-2.39,9.61,3.02,-3.45,4.9
CCc1ccccc1NC(=O)N1CCn2cccc2C1C(C)C (configuration not stated),14.2,1.17,6.25,5.61,9.81
Clc1cccc(-n2nnnc2NCc2ccccc2Oc2ccccn2)c1Cl,2.14,3.05,6.15,-22.3,-6.57
CCc1ccc(CN2C(=O)c3cc(-c4ccco4)nn3CC2(C)C(=O)NCCC(C)C)cc1 (configuration not stated),-0.193,2.5,-1.5,3.21,0.947
COc1ccc(C(=O)Cn2nc3n(CCc4ccccc4)c(=O)c4ccccc4n3c2=O)cc1,3.38,0,4.63,-0.01,-2.74
Cc1nc2ccccn2c1C(=O)NC(C)c1cnn(-c2ccccn2)c1C (configuration not stated),-4.01,-4.5,-2.99,-27.7,-0.356
CCc1ccc(N2C(=O)c3cc4sccc4n3CC2(C)C(=O)NC2CCCCC2C)cc1 (configuration not stated),-0.775,0,-1.47,0.274,-7.17
Clc1ccc2oc([C@H]3CCN(Cc4ccccn4)C3)nc2c1,-9.91,-9.72,-10.1,-20.3,-7.27
CCCCCNC(=O)c1sc(=S)n2c1[nH]c(=O)c1ccc(C(=O)OC)cc12,-38.2,0,6.88,-24.5,-8.08
C=C1C(=O)O[C@H](CCC)[C@H]1C(=O)O,2.6,8.74,3.31,-10.6,-3.04
COc1ccc(S(=O)(=O)NCC2Cn3cccc3C(=O)N2Cc2ccccc2)cc1 (configuration not stated),-15.3,-5.53,-2.82,-7.8,-5.4
Cc1ccc(CN2C(=O)c3ccc(-c4ccccc4)n3CC2(C)C(=O)NC2CCCCC2)cc1 (configuration not stated),6.81,0.874,6.33,4.73,4.06
CC[C@]12C=CCN3CC[C@@]4(c5cc([C@@]6(C(=O)OC)C[C@H]7C[C@@H](C(C)(F)F)CN(Cc8c6[nH]c6ccccc86)C7)c(OC)cc5N(C)[C@H]4[C@@](O)(C(=O)OC)[C@@H]1OC(C)=O)[C@@H]32,3.43,11.8,7.36,-4.75,2.38
COc1ccc(CCNC(=O)CCc2nnc3n(CCC(C)C)c(=O)c4ccccc4n23)cc1OC,-8.04,1.97,-1.32,-23.9,-4.79
Cc1nc2cc(S(=O)(=O)N3CCOCC3)ccc2n1CCNC(=O)C1CC1,-4.68,-10,-1.96,-11.9,-9.3
O=C(NCC1CN(C(=O)c2cnccn2)CC12CCOCC2)N1CCCC1 (configuration not stated),2.04,1.23,2.81,-2.73,0.044
O=C(NCc1cccc(C(F)(F)F)c1)c1nc2sccn2c1-c1ccccc1,-10.5,-10.1,-4.69,-22.8,-14.6
Cc1ccc(CN2CCc3nc(C(=O)Nc4cccnc4)oc3CC2)o1,-15.4,-11.8,-9.98,-13.9,-8.46
CC1(C(=O)NC2CCCCCCC2)Cn2c(cc3occc32)C(=O)N1Cc1ccccc1F (configuration not stated),3.77,0,5.91,0.241,0.845
O=C(Nc1ccccc1)N1CCC(N(C(=O)C2CC2)C2CCOCC2)CC1,-6.13,-14.6,-4.33,-14.7,-6.18
CC/C=C/C(O)C(O)C1=C(C)C(=O)C2(O1)C(=O)NC(OC)(C(=O)c1ccccc1)C2O (configuration not stated),-0.84,-2.45,8.91,-15.7,-10.9
COC(=O)c1ncn2c1C(=O)N(c1cc(C)ccc1C)C(C)(C(=O)NC1CCCCCC1)C2 (configuration not stated),5.16,1.42,0.58,10.9,2.44
O=C(NC1CC1)C1CCc2nnc(-c3cccnc3)n21 (configuration not stated),-2.36,0.334,-4.36,-2.76,-3.96
CCCC(=O)Nc1cccc(NC(=O)c2ccccc2Br)c1,0.332,1.58,6.57,-4.55,5.96
CCCN1C(=O)c2c(C(=O)NCCC3=CCCCC3)ncn2CC1(C)C(=O)NCCC(C)C (configuration not stated),-1.24,0.907,4.78,-7.68,6.25
CO[C@H]1C[C@@H]2CC[C@@H](C)[C@@](O)(O2)C(=O)C(=O)N2CCCC[C@H]2C(=O)O[C@H]([C@H](C)C[C@@H]2CC[C@H](n3cnnn3)[C@H](OC)C2)CC(=O)[C@H](C)/C=C(\C)[C@@H](O)[C@@H](OC)C(=O)[C@H](C)C[C@H](C)/C=C/C=C/C=C/1C,2.87,7.17,8.69,-7.78,6.39
Cc1ccc(Cn2c(=O)c3ccc(C(=O)NCC(C)C)cc3n3c(=O)n(Cc4cccc(F)c4)nc23)cc1,6.1,2.2,6,4.58,6.61
